Experimental data published in PubChem BioAssay AID504466 (National Center for Advancing Translational Sciences (NCATS), 2011).
About 4,200 (1.3%) of roughly 330,000 compounds were called active. The inconclusive results got no clear call from the source; some entries with a clear call stand among them for comparison. Calls come from the whole dose curve; as a rule, active = well fitted activation curve with a large enough effect; inconclusive = small, poorly fitted or top-dose-only effect; inactive = no such curve, though single readings can be large or run the other way. Potencies beside an inconclusive call are fits to weak or partial responses and may not hold up.

Assay: qHTS screen for small molecules that induce genotoxicity in human embryonic kidney (HEK293T) cells expressing luciferase-tagged ELG1; note: nearly all actives have a fitted effect of over 60% in size
Details: HEK293T ELG1-luciferase reporter, luminescence, 16 h; series mostly up to 46 µM
Summary of the method: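 Step 1: seed 2,000 HEK293T ELG1-luciferase cells per well. Step 2: add compound or DMSO, incubate 16 hr at 37 °C. Step 3: ONE-Glo, 30 min at room temperature, read luminescence.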
Potency is the fitted concentration of half-maximal effect; tags give direction and shape of the fitted curve.

Row | SMILES | Potency
1 | CCOc1cccc2sc(N(CCCN(C)C)C(=O)c3ccc(S(=O)(=O)N4CCc5ccccc5C4)cc3)nc12 | inconclusive: 20.6 µM [activator, partial curve, poor fit]
2 | O=C(N/N=C/c1cccc([N+](=O)[O-])c1)c1cccs1 | inconclusive: 18.4 µM [activator, partial curve, poor fit]
3 | O=C(NC1CCCCCCC1)c1cccc(Cl)c1 | inconclusive: 23.1 µM [activator, partial curve, poor fit]
4 | Cc1ccc(Cn2nc(C)c(NC(=O)c3nn(C)cc3Cl)c2C)cc1 | inactive
5 | COc1ccc(C(=O)/C(=C/c2cccs2)c2nc3ccccc3o2)cc1 | inconclusive: 18.4 µM [activator, partial curve]
6 | CCCN(CCC)CC(O)Cn1cc(/C=C/C(=O)c2cccs2)c2ccccc21 (stereo not given) | inactive
7 | COc1cc(SC)ccc1C(=O)Nc1ccon1 | inconclusive: 18.4 µM [activator, partial curve]
8 | C(=N\N1CCN(Cc2cccc3ccccc23)CC1)/c1ccco1 | inactive
9 | CCN(CCO)c1ccc(N=Nc2cc(C)[nH]n2)cc1 | inconclusive: 0.231 µM [activator, full curve, poor fit]
10 | CCOC(=O)C1=NN(c2ccc(Cl)cc2)C(=O)C1 | inconclusive: 8.2 µM [activator, partial curve]
11 | COc1cc(NC(=O)c2cccs2)ccc1NC(=O)c1ccco1 | active: 18.4 µM
12 | COc1ccc(NC(=O)c2ccc(NC(=O)COC(=O)c3cnc(C)cn3)cc2)cc1 | inconclusive: 4.61 µM [activator, single point]
13 | Brc1csc(/C=N/Nc2nc3ccccc3s2)c1 | inconclusive: 2.06 µM [activator, partial curve]
14 | COc1cccc(C(=O)Nc2ccc(C(F)(F)F)n(C)c2=O)c1 | inconclusive: 13 µM [activator, partial curve]
15 | Cc1cc(/C=C(\C#N)C(=O)Nc2ccccc2F)c(C)[nH]1 | inconclusive: 2.31 µM [activator, full curve]
16 | CSCCC(=O)NC1CCCN(CCc2ccccc2)C1 (stereo not given) | inactive
17 | COc1ccc(N2C(=O)c3ccccc3NC2c2ccccc2O)cc1 (stereo not given) | inconclusive: 10.3 µM [activator, partial curve]
18 | O=C(COC(=O)c1ccccc1NC(=O)C1CC1)c1ccc2c(c1)OCCO2 | inactive
19 | Cc1cc(C(=O)CSc2nnc(N)s2)c(C)n1C1CC1 | inconclusive: 16.4 µM [activator, partial curve, poor fit]
20 | COc1cccc(-c2cc(C(=O)N3CCOCC3)no2)c1 | inconclusive: 2.91 µM [activator, partial curve, poor fit]
21 | O=c1c2cnn(-c3ccccc3)c2nc(-c2ccco2)n1-c1ccccc1 | inactive
22 | Cn1cnc([N+](=O)[O-])c1S(=O)(=O)c1cccc(Cl)c1 | inconclusive: 16.4 µM [activator, partial curve, poor fit]
23 | O=C(/C=C/c1ccc2c(c1)OCO2)Nc1cccnc1 | active: 3.66 µM
24 | CN(C)c1ccc(NC(=O)c2ccc3nsnc3c2)cc1 | active: 2.59 µM

Row | SMILES | Potency
25 | COc1ccccc1C(=O)NC(CCSC)C(=O)OCC(=O)NC(=O)NCc1ccco1 (stereo not given) | inactive
26 | NC(N)=NCC(O)CN(c1ccccc1)c1ccccc1 (stereo not given) | inactive
27 | COc1ccc(-c2nnc(-c3ccccc3O)o2)cc1 | inconclusive: 4.61 µM [activator, single point]
28 | COc1ccc2c(c1OC)C(=O)OC2Nc1nc(-c2cc3ccccc3oc2=O)cs1 (stereo not given) | inconclusive: 1.84 µM [activator, partial curve]
29 | Cc1c(C(N)=O)sc2nc(-c3ccccc3)cn12 | inconclusive: 14.6 µM [activator, partial curve, poor fit]
30 | Cc1cc(-c2ccccc2)n2ncc(-c3ccccc3)c2n1 | active: 0.206 µM
31 | CCn1c(NC(=O)c2ccc(C)cc2)c2ccccc2nc1=O | inconclusive: 32.6 µM [activator, partial curve, poor fit]
32 | Cc1ccc(/C=N/NC(=O)c2cccs2)s1 | inconclusive: 14.6 µM [activator, partial curve]
33 | Cc1ncc(CO)c2c1Oc1nc(-c3ccccc3)nc(SCC(=O)Nc3cccc(O)c3)c1C2 | inconclusive: 29.1 µM [activator, single point]
34 | O=C(Nc1ccc2oc(-c3ccc(Cl)c(Cl)c3)nc2c1)c1ncn[nH]1 | inconclusive: 2.91 µM [activator, partial curve, poor fit]
35 | COC(=O)CCSCc1cn2cc(Cl)ccc2n1 | inconclusive: 23.1 µM [activator, partial curve, poor fit]
36 | CCOC(=O)c1sc(NC(=O)c2cccnc2)nc1C | inconclusive: 18.4 µM [activator, single point]
37 | O=C(COC(=O)c1ccccc1Br)NCCC1=CCCCC1 | inconclusive: 23.1 µM [activator, partial curve, poor fit]
38 | O=C1/C(=C/Nc2ccc3c(c2)OCO3)CCc2ccccc21 | inconclusive: 0.1 µM [activator, full curve, poor fit]
39 | Oc1ccc(-c2csc(-c3cccnc3)n2)cc1O | inconclusive: 5.8 µM [activator, full curve, poor fit]
40 | C[C@H](CO)N1C[C@H](C)[C@@H](CN(C)Cc2ccc3c(c2)OCO3)Oc2c(NS(=O)(=O)c3cn(C)cn3)cccc2C1=O | inactive
41 | CC(=O)CCc1c(C)c2cc(C)ccc2[nH]c1=O | inconclusive: 20.6 µM [activator, partial curve, poor fit]
42 | C[C@H](CO)N1C[C@H](C)[C@@H](CN(C)S(=O)(=O)c2ccccc2)Oc2ccc(NC(=O)C3CC3)cc2C1=O | inactive
43 | COc1cc(/C=C(\C#N)C(=O)Nc2cc(C(F)(F)F)ccc2Cl)ccc1OCC(=O)Nc1cccc(C(F)(F)F)c1 | inconclusive: 29.1 µM [activator, partial curve, poor fit]
44 | CCc1ccc(NC(=O)c2noc3c2CCCCC3)cc1 | inconclusive: 2.06 µM [activator, full curve]
45 | Nc1ccc(-c2nc3cc(N)ccc3s2)cc1 | active: 2.91 µM
46 | O=C(NCC1CCCN1S(=O)(=O)c1cccs1)C(=O)Nc1ccc(F)cc1 (stereo not given) | inconclusive: 20.6 µM [activator, partial curve]
47 | O=c1[nH]c(-c2ccccc2)nnc1-c1ccccc1 | inconclusive: 20.6 µM [activator, single point]
48 | O=C(N/N=C/c1ccccc1O)c1cccc(C(F)(F)F)c1 | inconclusive: 13 µM [activator, partial curve, poor fit]

Row | SMILES | Potency
49 | CCCCn1c(-c2ccsc2)nc2c1c(=O)[nH]c(=O)n2CCC | inconclusive: 18.4 µM [activator, single point]
50 | C/C(=N\NC(=O)c1c[nH]c2ccccc12)c1ccccn1 | inconclusive: 11.6 µM [activator, partial curve]
51 | CSc1ccccc1OCc1cc(C(=O)N2C[C@H]3CC[C@H]2C3)no1 | inconclusive: 14.6 µM [activator, partial curve]
52 | Cc1c(C(=O)Nc2nccs2)oc2ccc(Br)cc12 | active: 9.2 µM
53 | Cc1nc2cc(NC(=O)N3CCC(c4ccccc4)C3)ccc2n1C (stereo not given) | inconclusive: 23.1 µM [activator, partial curve, poor fit]
54 | O=C(Nc1ccc2oc(-c3ccccc3Cl)nc2c1)c1cncc(Br)c1 | inconclusive: 23.1 µM [activator, partial curve, poor fit]
55 | Cc1ccc(OCC(=O)N(Cc2ccccc2)C2CCS(=O)(=O)C2)c([N+](=O)[O-])n1 (stereo not given) | inactive
56 | COc1ccc([C@H]2Cc3cc(O)cc(O)c3C(=O)O2)cc1O | active: 5.17 µM
57 | Oc1ccc(Nc2nc(-c3ccccc3F)nc3ccccc23)cc1 | inactive
58 | COC(=O)c1ccc(N=NNc2cccc(Br)c2)cc1 | inconclusive: 16.4 µM [activator, partial curve]
59 | c1ccc(OCCSc2nnnn2-c2ccccc2)cc1 | active: 3.66 µM
60 | COc1cccc(C(=O)Nc2nnc(-c3cccs3)s2)c1 | active: 0.82 µM
61 | CCc1ccc(OCc2nc(-c3ccccn3)no2)c(Br)c1 | inconclusive: 0.92 µM [activator, partial curve]
62 | Cc1cc(=O)n2c(C(=O)Nc3ccc(C(=O)OC(C)C)cc3)c(C(=O)Nc3ccccc3)sc2n1 | inactive
63 | COc1cccc(C=O)c1OCCCOc1cccc2cccnc12 | active: 18.3 µM
64 | CC(C)(C)n1nc2c(c1NC(=O)c1ccc(Cl)c([N+](=O)[O-])c1)CS(=O)(=O)C2 | inactive
65 | CCCc1cc(C(=O)N2CCN(C(c3ccccc3)c3ccccc3)CC2)no1 | inconclusive: 16.4 µM [activator, partial curve, poor fit]
66 | CCOc1ccccc1CNC(=O)C1CCN(c2nn3c(=O)cc(C)nc3s2)CC1 | inactive
67 | COC(=O)c1[nH]c2ccc(F)cc2c1NC(=O)Nc1ccc(OC)cc1 | inconclusive: 25.9 µM [activator, partial curve, poor fit]
68 | O=C(Nc1ccc(CN2CCOCC2)cc1)c1cccs1 | inconclusive: 11.6 µM [activator, partial curve, poor fit]
69 | O=C(Nc1ccc(SC(F)F)cc1)c1ccc(F)cc1 | inconclusive: 2.91 µM [activator, full curve, poor fit]
70 | N/C(=N\OC(=O)c1ccc2c(c1)OCO2)c1ccc(Cl)cc1 | inconclusive: 23.1 µM [activator, partial curve, poor fit]
